# Measured values taken from publication PMC4336329 (PLoS ONE, 2015).
# The campaign covered roughly 310,000 compounds. About 2,200 (0.71%) showed an effect of 50% or more. The effect is printed as a negative number. Some of the results follow.
# Target: human ether-à-go-go-related gene (hERG) potassium channel (human, UniProt Q12809)
# Assay: primary screen, population patch clamp on CHO cells stably expressing hERG
# Sequence of human ether-à-go-go-related gene (hERG) potassium channel (Q12809 whole entry, looked up): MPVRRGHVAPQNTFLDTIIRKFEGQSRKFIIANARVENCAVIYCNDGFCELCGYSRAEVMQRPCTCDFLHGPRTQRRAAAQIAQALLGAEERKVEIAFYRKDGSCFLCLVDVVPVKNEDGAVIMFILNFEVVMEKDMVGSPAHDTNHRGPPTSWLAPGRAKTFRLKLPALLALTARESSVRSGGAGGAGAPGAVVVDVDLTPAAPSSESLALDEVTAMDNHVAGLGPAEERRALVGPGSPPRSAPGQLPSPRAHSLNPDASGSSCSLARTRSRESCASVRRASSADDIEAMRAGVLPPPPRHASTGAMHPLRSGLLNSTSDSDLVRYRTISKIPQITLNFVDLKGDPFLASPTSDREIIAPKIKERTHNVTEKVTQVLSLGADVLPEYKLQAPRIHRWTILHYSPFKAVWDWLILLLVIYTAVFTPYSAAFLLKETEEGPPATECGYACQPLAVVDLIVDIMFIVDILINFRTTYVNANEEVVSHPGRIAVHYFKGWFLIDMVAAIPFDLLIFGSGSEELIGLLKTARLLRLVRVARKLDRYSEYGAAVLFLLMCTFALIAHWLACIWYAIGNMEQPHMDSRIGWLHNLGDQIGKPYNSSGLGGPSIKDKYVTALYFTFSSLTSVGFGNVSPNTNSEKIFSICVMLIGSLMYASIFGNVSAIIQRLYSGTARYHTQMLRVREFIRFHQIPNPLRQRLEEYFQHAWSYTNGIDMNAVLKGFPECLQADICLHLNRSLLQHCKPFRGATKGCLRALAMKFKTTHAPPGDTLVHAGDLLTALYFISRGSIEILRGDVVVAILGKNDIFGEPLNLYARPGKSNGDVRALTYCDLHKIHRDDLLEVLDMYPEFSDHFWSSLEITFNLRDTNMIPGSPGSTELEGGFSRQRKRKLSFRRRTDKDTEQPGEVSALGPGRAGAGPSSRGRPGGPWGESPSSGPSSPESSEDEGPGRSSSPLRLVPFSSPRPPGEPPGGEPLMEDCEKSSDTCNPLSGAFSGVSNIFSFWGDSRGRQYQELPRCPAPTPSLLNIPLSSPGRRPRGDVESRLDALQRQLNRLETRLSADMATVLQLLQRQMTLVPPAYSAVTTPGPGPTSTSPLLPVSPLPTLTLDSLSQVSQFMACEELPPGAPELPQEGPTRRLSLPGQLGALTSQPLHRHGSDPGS
row,SMILES,"hERG current change (%, negative = inhibition) at 1uM [%]"
1,CCN(CC(=O)N1CCN(C)CC1)S(=O)(=O)c1ccc(Cl)cc1,3.08
2,O=C1C2CC=C(Cl)CC2C(=O)N1CNc1ccccn1 (stereo not drawn),15.8
3,O=C(O)Cc1ccc(NS(=O)(=O)c2ccccc2Cl)cc1,8.62
4,CC(C)CCC(O)(CCC(C)C)C(=O)NNc1ccccc1,-3.75
5,CC(=O)c1cccc(N=C2NC(=O)C(CO)(CO)S2)c1,3.48
6,CC(C)NC(=O)NS(=O)(=O)c1cnccc1N1CCCCC1,14.1
7,COc1ccccc1C(=O)NCC(c1cccnc1)N(C)C (stereo not drawn),-1.44
8,COc1ccc(Cl)cc1NC(=O)CN(C)CC(=O)Nc1ccc(Br)cc1,5.56
9,CCOC(=O)Nc1cc(NC(=O)OCC)c(C)nc1C,2.31
10,CC(Oc1cc2oc(=O)c3c(c2cc1Cl)CCC3)C(=O)N1C[C@H]2C[C@@H](C1)c1cccc(=O)n1C2 (stereo partly drawn),-4.75
11,O=C(Nc1ccc2c(c1)OCO2)C1CCN(S(=O)(=O)c2ccc3c(c2)OCCO3)CC1,11.3
12,COc1ccc(CNC(=O)COc2cc(O)c3c(c2)OC(C)(C)CC3=O)cc1,-11.9
13,Cc1cccc(-n2c(O)c(C=NC34CN5CN(CN(C5)C3)C4)c(=O)[nH]c2=O)c1,2.16
14,CCOC(=O)C1=C(CC)Nc2ccccc2N=C1NC(=O)c1cccc(S(=O)(=O)N2CCOCC2)c1,7.28
15,CS(=O)(=O)N1CC(C(=O)NC2CC2)Oc2ccc(Cl)cc21 (stereo not drawn),16.9
16,Cc1nn(-c2ccccc2)c(Cl)c1/C=N\NC(=O)c1cnccn1,7.01
17,CC(=O)Nc1ccc(NC(=O)c2cc(=O)c3ccccc3o2)cc1,14.6
18,Cc1ccccc1N1CCN(Cc2cccc(C(=O)O)c2)CC1.Cl,4.2
19,CCN(C(=O)CSc1nc(-c2ccccc2)cn1N)c1c(N)n(Cc2ccccc2)c(=O)[nH]c1=O,12.2
20,CCOC(=O)/C(C)=N/NC(=O)c1ccc([N+](=O)[O-])cc1,4.23
21,CCOC(=O)N1CCC(NC(=O)CN(C)S(=O)(=O)c2cc3c(cc2Cl)NC(=O)CO3)CC1,17.2
22,O=C(NCC(c1ccc(F)cc1)N1CCOCC1)c1cccnc1Sc1ccccc1Cl (stereo not drawn),8.19
23,CC1=CC(=C(C#N)c2nc3ccccc3s2)C=C(C)N1CC1CCCO1 (stereo not drawn),10.4

row,SMILES,"hERG current change (%, negative = inhibition) at 1uM [%]"
1,CCCCc1ccc(-c2c(C#N)c(N)nc3c2CCCC3)s1,4.41
2,COc1ccc(CN2CCN(C(=O)CC(C)C)CC2)c2ccccc12,7.79
3,O=C(CN1CCN(C(c2ccccc2)c2ccccc2)CC1)N1CCOCC1.O=C(O)C(=O)O,1.74
4,CN(C(=O)COC(=O)c1cccnc1Nc1ccccc1F)C1CCS(=O)(=O)C1 (stereo not drawn),7.08
5,O=C(/C=C/c1ccco1)Nc1nc(-c2ccccn2)cs1,10.9
6,CCN(C(=O)Cn1c(=O)oc2ccccc21)c1c(N)n(Cc2ccccc2)c(=O)[nH]c1=O,13.7
7,Cc1cccc(C(=O)NCC2CCN(C(=O)c3cccc(C)c3)CC2)c1,-2.21
8,Cl.O=[N+]([O-])c1ccc2ncnc(N3CCN(Cc4ccc5c(c4)OCO5)CC3)c2c1,11.4
9,O=C(COc1cccc2cccnc12)N1CCc2ccccc21,10
10,COc1ccc(CC(=O)NNC(=O)CSc2nc(C)c(C)c(=O)[nH]2)cc1,15.5
11,CCc1noc(C)c1C(=O)N1CCN(S(=O)(=O)c2ccc(Cl)s2)CC1,5.94
12,CC(C)c1ccc(C(=O)NC2=NCCS2)cc1,7.64
13,O=C(c1ccc2ccccc2c1)N1CCN(c2ccccc2)CC1,4.03
14,O=C(Cc1cc(=O)[nH]c(=O)[nH]1)N1CCC(Cc2ccccc2)CC1,17.1
15,O=C(CC(C(=O)NCc1ccccc1)c1nc2ccccc2c(=O)[nH]1)NCc1ccccc1 (stereo not drawn),11.1
16,CC1CCCC(C)N1NC(=O)Cc1ccccc1 (stereo not drawn),16.3
17,COC(=O)C(C)Oc1ccc(Cc2ncc(C(F)(F)F)cc2Cl)cc1 (stereo not drawn),12.5
18,Cc1ccc2[nH]c(=O)c(CN(CCCO)C(C)c3nnnn3Cc3ccco3)cc2c1 (stereo not drawn),9.01
19,Cn1c(NN)nc2c1c(=O)n(Cc1ccccc1)c(=O)n2C,16.5
20,CCOC(=O)C1(CCOC)CCN(Cc2ccncc2)CC1,18.4
21,CC1(C)Cc2c(cnn2-c2cccc(F)c2)C(NC(=O)c2csnn2)C1 (stereo not drawn),-85
22,O=C(c1ccco1)N(CCC(c1ccccc1)c1ccco1)Cc1ccc(F)cc1 (stereo not drawn),-7.5
23,CC1SCC(=O)N(CC(=O)NCc2ccccc2)C1=O (stereo not drawn),17.2

row,SMILES,"hERG current change (%, negative = inhibition) at 1uM [%]"
1,CC1(C)Nc2ccccc2C(=O)N1c1ccccc1,15.8
2,O=C(O)c1cccc(NC(CNS(=O)(=O)c2ccc(Cl)cc2)c2ccccc2)c1 (stereo not drawn),12.9
3,Cc1ccc(NC(=O)NC2CC(=O)N(c3ccc4c(c3)OCCO4)C2)cc1 (stereo not drawn),11.3
4,O=S(=O)(NCc1cc(-c2ccccc2)no1)c1ccccc1Cl,10.2
5,CCNC(=O)c1ccc(C2SCC(=O)N2Cc2ccco2)cc1 (stereo not drawn),7.71
6,Cn1cc(C(=O)NCc2ccccc2F)cn1,11.5
7,CCCOc1ccc2c(C)c(CC(=O)OC)c(=O)oc2c1,4.92
8,CCOC(=O)C1C(=O)NC(N2CCCCC2)=NC1c1ccco1 (stereo not drawn),11.8
9,CCC(Oc1ccccc1)C(=O)Nc1nnc(C(F)(F)F)s1 (stereo not drawn),3.14
10,O=C(O)[C@H]1CCC(=O)N1Cc1ccco1,9.4
11,COc1ccccc1CCNC(=O)CNC(=O)Cc1cccc2ccccc12,6.4
12,CC1CCN(c2nc(-c3ccco3)c3c(c2C#N)CC(C)(C)OC3)CC1,8.07
13,CCOCCc1nnc(NC(=O)c2cccs2)s1,12.7
14,Cc1c(C(=O)N2c3ccccc3Sc3ccccc32)cccc1[N+](=O)[O-],7.52
15,O=C(NCCCN1CCOCC1)c1ccc(S(=O)(=O)Nc2ccccc2F)cc1,12.8
16,Cc1[nH]c2ccccc2c1-c1csc(N)n1,17
17,Cc1nnc(SCC(=O)Nc2nsc(-c3ccc(Cl)cc3)n2)s1,-0.254
18,CN(NC(=O)c1ccc(Cl)cc1)c1ncc(C(F)(F)F)cc1Cl,8.74
19,O=C(/C=C/c1ccccc1)NNC(=O)c1ccco1,9.8
20,O=C1c2ccccc2C(=O)N1Cc1cccnc1,15.6
21,COc1ccc(-c2cc(C)no2)cc1S(=O)(=O)Nc1cccc(CN2CCCC2)c1,4.37
22,Brc1cccc(OCCCCN2CCCCC2)c1.O=C(O)C(=O)O,-43.2
23,COc1ccc(NC(=S)NN(C)C(=S)Nc2ccc(OC)cc2)cc1,12.9

row,SMILES,"hERG current change (%, negative = inhibition) at 1uM [%]"
1,CCSc1nc2ccccc2n1C(=O)Oc1ccccc1,-1.11
2,Cc1cc(C)c(S(=O)(=O)Nc2cc(SCC(=O)O)c(O)c3ccccc23)cc1C,2.39
3,CNC(=O)CNC(=O)Nc1ccc(Cl)c(Cl)c1,12.9
4,COc1cc2oc3cc(C#Cc4ccc(N)cc4)ccc3c(=O)c2cc1OC,16
5,CSCC[C@H](NC(=O)Nc1ccc(C)cc1)C(=O)O,15.1
6,COc1ccccc1-c1cc(C(=O)Nc2cc(C)nn2-c2ccccc2)no1,8.1
7,COc1ccc(CNC(=O)c2cc3c(=O)[nH]c4ccccc4c3n2C)cc1,15.1
8,O=S(=O)(c1cnc[nH]1)N1CCCCCC1,11.6
9,CC/C=C(\NC(C)=O)c1ccccc1,9.71
10,Cc1ccc(C(=O)NNC(=O)c2ccco2)cc1,8.61
11,O=C(Cc1ccccc1)NNC1CC(=O)N(c2ccc(Cl)cc2)C1=O (stereo not drawn),7.52
12,COC(=O)c1sccc1NC(=O)c1c(F)c(F)c(F)c(F)c1F,7.4
13,COc1cc2c(cc1NC(=O)C(C)Sc1ccc(C)cc1)oc1ccccc12 (stereo not drawn),17.2
14,CN(CC(=O)NCCc1ccc(S(N)(=O)=O)cc1)S(=O)(=O)c1cccc2nsnc12,3.75
15,CSc1cccc(NC(=S)N2CCCN(Cc3ccc(F)cc3)C2)c1,-2.18
16,Cc1ccc(C(NC(=O)c2cccc(S(=O)(=O)N3CCN(C)CC3)c2)c2ccccc2)cc1 (stereo not drawn),1.78
17,COc1ccc(Cc2nnc(NC(=O)C3CCCO3)s2)cc1OC (stereo not drawn),13.6
18,O=C(CSc1nnc2c3c4c(sc3ncn12)CCCC4)NCc1ccco1,13.2
19,COc1ccc(S(=O)(=O)N2CCOCC2)cc1NC(=O)c1ccccc1C,15.2
20,CCCCN1C(=O)NC(c2ccc(OC)cc2)C(C(=O)OCc2ccccc2)=C1C (stereo not drawn),6.49
21,Cc1ccc(C(C(=O)NCc2ccccc2)N(Cc2ccco2)C(=O)c2snc(C(N)=O)c2N)o1 (stereo not drawn),8.42
